The text below walks through data of patent US20090209520A1, “2 -OXYBENZAMIDE DERIVATIVES AS PARP INHIBITORS” (KUDOS PHARMACEUTICALS LIMITED, priority 2006, published 2009).

The assay addresses Mammalian PARP, isolated from Hela cell nuclear extract (Homo sapiens, UniProt P09874). Put plainly: PARP inhibition assay (FlashPlate, 3H-NAD scintillation counting). Format: biochemical. The settings on record: NAD 5 μM, 30° C., 45 minutes, read-out: IC50 (concentration at which 50% of the enzyme activity is inhibited).

For the compound `CC(Oc1ccccc1)C(=O)N1CCN(C(=O)c2ccc(CCOc3ccccc3C(N)=O)cc2F)CC1` (stereo not shown) [Compound 11, 2-(2-{3-Fluoro-4-[4-(2-phenoxy-propionyl)-piperazine-1 carbonyl]-phenyl}-ethoxy)-benzamide], the IC50 was under 2000 nM.
